# Results: patent US20250221953A1 (The University of Chicago, priority 2022, published 2025)
# System: PD-1^+ Jurkat T cells co-cultured with H596 (PD-L1^+) cells
# Assay: 1st screen 1b: rescue of PD-L1/PD-1 dependent exhaustion of PD-1+ Jurkat T cells in co-culture (IL-2 ELISA)
# Format: cell-based, human
# Conditions: 1st screen 1b (Table 4): rescue of PD-L1/PD-1 dependent exhaustion of PD-1 expressing Jurkat T cells co-cultured with PD-L1-expressing H596 cells
row,Molecule,Relative changed percentage (%)
1,"LIPASE FROM PORCINE PANCREAS (protein, UniProt P00591 1-450, looked up) Pancreatic triacylglycerol …: SEVCFPRLGCFSDDAPWAGIVQRPLKILPWSPKDVDTRFLLYTNQNQNNYQELVADPSTITNSNFRMDRKTRFIIHGFIDKGEEDWLSNICKNLFKVESVNCICVDWKGGSRTGYTQASQNIRIVGAEVAYFVEVLKSSLGYSPSNVHVIGHSLGSHAAGEAGRRTNGTIERITGLDPAEPCFQGTPELVRLDPSDAKFVDVIHTDAAPIIPNLGFGMSQTVGHLDFFPNGGKQMPGCQKNILSQIVDIDGIWEGTRDFVACNHLRSYKYYADSILNPDGFAGFPCDSYNVFTANKCFPCPSEGCPQMGHYADRFPGKTNGVSQVFYLNTGDASNFARWRYKVSVTLSGKKVTGHILVSLFGNEGNSRQYEIYKGTLQPDNTHSDEFDSDVEVGDLQKVKFIWYNNNVINPTLPRVGASKITVERNDGKVYDFCSQETVREEVLLTLNPC",−66.02
2,"Carcinoembryonic Antigen (CEA) (protein, UniProt P06731 35-685, looked up) Cell adhesion molecule CEACAM5: KLTIESTPFNVAEGKEVLLLVHNLPQHLFGYSWYKGERVDGNRQIIGYVIGTQQATPGPAYSGREIIYPNASLLIQNIIQNDTGFYTLHVIKSDLVNEEATGQFRVYPELPKPSISSNNSKPVEDKDAVAFTCEPETQDATYLWWVNNQSLPVSPRLQLSNGNRTLTLFNVTRNDTASYKCETQNPVSARRSDSVILNVLYGPDAPTISPLNTSYRSGENLNLSCHAASNPPAQYSWFVNGTFQQSTQELFIPNITVNNSGSYTCQAHNSDTGLNRTTVTTITVYAEPPKPFITSNNSNPVEDEDAVALTCEPEIQNTTYLWWVNNQSLPVSPRLQLSNDNRTLTLLSVTRNDVGPYECGIQNELSVDHSDPVILNVLYGPDDPTISPSYTYYRPGVNLSLSCHAASNPPAQYSWLIDGNIQQHTQELFISNITEKNSGLYTCQANNSASGHSRTTVKTITVSAELPKPSISSNNSKPVEDKDAVAFTCEPEAQNTTYLWWVNGQSLPVSPRLQLSNGNRTLTLFNVTRNDARAYVCGIQNSVSANRSDPVTLDVLYGPDTPIISPPDSSYLSGANLNLSCHSASNPSPQYSWRINGIPQQHTQVLFIAKITPNNNGTYACFVSNLATGRNNSIVKSITVSASGTSPGLSA",−0.3876
